The other results are listed elsewhere or left out. Rule as the data show it: active = 3.2 or more and inactive = the rest. Only a few entries rise above the background.
Legend:
Assay in all cases: enrichment score (SH2-bound / input frequency) (ratio); bacterial display of known human phosphotyrosine sites (pTyr-Var adds point mutants) read by sequencing; higher = stronger binding; tyrosines were phosphorylated by kinases first
Settings in all cases: peptide library: pTyr-Var
SHP2 C-SH2 domain E139D = target: SHP2 C-SH2 domain E139D
[1] = target: SHP2 C-SH2 domain wild-type
SHP2 N-SH2 domain L43F = target: SHP2 N-SH2 domain L43F
SHP2 N-SH2 domain T42A = target: SHP2 N-SH2 domain T42A
SHP2 N-SH2 domain T52S = target: SHP2 N-SH2 domain T52S
[2] = target: SHP2 N-SH2 domain wild-type
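Also: displayed peptides selected on beads carrying the immobilized SH2 domain, with library peptides lacking any tyrosine serving as negative controls.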

Row | Binder | enrichment score (SHP2 C-SH2 domain E139D) | enrichment score [1] | enrichment score (SHP2 N-SH2 domain L43F) | enrichment score (SHP2 N-SH2 domain T42A) | enrichment score (SHP2 N-SH2 domain T52S) | enrichment score [2]
1 | TFGVLYKARNK [CDK2_Y19_V18L_YF] | inactive: 0.531 | inactive: 0.42 | inactive: 0.396 | inactive: 0.538 | inactive: 0.423 | inactive: 0.332
2 | TYGVVYRAKDK [CDK11B_Y453] | inactive: 0.461 | inactive: 0.393 | inactive: 0.227 | inactive: 0.427 | inactive: 0.399 | inactive: 0.538
3 | IGEGTYRTVFK [CDK5_Y15_G16R] | inactive: 0.751 | inactive: 0.896 | inactive: 0.546 | inactive: 0.724 | inactive: 0.669 | inactive: 0.777
4 | DPADRYLTEQY [CDKL5_Y286_C291Y] | inactive: 0.682 | inactive: 0.582 | inactive: 0.609 | inactive: 0.534 | inactive: 0.524 | inactive: 0.704
5 | IGEGTYRQVFK [CDK13_Y716_G717R_YF] | inactive: 1.01 | inactive: 0.791 | inactive: 0.919 | inactive: 0.771 | inactive: 0.879 | inactive: 1.39
6 | QSRSPYSSRHS [CDK13_Y415_R410Q] | inactive: 0.632 | inactive: 0.63 | inactive: 0.402 | inactive: 0.335 | inactive: 0.529 | inactive: 0.333
7 | TYGVAYRAKDK [CDK11B_Y453_V452A] | inactive: 0.677 | inactive: 0.59 | inactive: 0.428 | inactive: 0.396 | inactive: 0.697 | inactive: 0.325
8 | DPADRYLIEQC [CDKL5_Y286_T288I] | inactive: 0.623 | inactive: 0.932 | inactive: 0.776 | inactive: 0.603 | inactive: 0.7 | inactive: 0.79
9 | RSRSPYSSRHS [CDK13_Y415] | inactive: 0.255 | inactive: 0.219 | inactive: 0.363 | inactive: 0.315 | inactive: 0.284 | inactive: 0.145
10 | IGEGTYRQVYK [CDK13_Y716_G717R] | inactive: 0.847 | inactive: 0.553 | inactive: 0.591 | inactive: 0.579 | inactive: 0.772 | inactive: 0.812
11 | ALAAPYVLYPS [CEFIP_Y1332_G1337S] | inactive: 0.905 | inactive: 0.923 | inactive: 0.865 | inactive: 0.797 | inactive: 0.783 | inactive: 0.665
12 | TQKLAYVELQQ [CENPF_Y700_M701V] | inactive: 1.08 | inactive: 1.32 | active: 4.42 | active: 8.39 | active: 4.84 | inactive: 1.96
13 | DPADRYLTEQF [CDKL5_Y286_C291Y_YF] | inactive: 0.696 | inactive: 0.765 | inactive: 0.725 | inactive: 0.695 | inactive: 0.784 | inactive: 0.719
14 | EKQARYEIVEE [CDH5_Y223_V227E] | inactive: 0.807 | inactive: 0.778 | inactive: 0.638 | inactive: 0.754 | inactive: 0.728 | inactive: 0.852
15 | NAPNSYGRRPT [CDKN2A_Y44_I49T] | inactive: 0.294 | inactive: 0.178 | inactive: 0.191 | inactive: 0.239 | inactive: 0.275 | inactive: 0.186
16 | IGEGTYGVVFK [CDK2_Y15_YF] | inactive: 1.17 | inactive: 1.03 | inactive: 0.795 | inactive: 1.04 | inactive: 0.987 | inactive: 1.55
17 | VTRDEYPSNPM [CEMIP2_Y1015_I1010V] | inactive: 0.633 | inactive: 0.615 | inactive: 0.607 | inactive: 0.56 | inactive: 0.493 | inactive: 0.529
18 | IGEGTSGVVFK [CDK2_Y15_Y15S_YF] | inactive: 0.665 | inactive: 0.616 | inactive: 0.495 | inactive: 0.638 | inactive: 0.57 | inactive: 0.568
19 | ALAAPYVLFPG [CEFIP_Y1332_YF] | inactive: 0.848 | inactive: 0.757 | inactive: 0.945 | inactive: 0.798 | inactive: 0.959 | inactive: 0.853

Row | Binder | enrichment score (SHP2 C-SH2 domain E139D) | enrichment score [1] | enrichment score (SHP2 N-SH2 domain L43F) | enrichment score (SHP2 N-SH2 domain T42A) | enrichment score (SHP2 N-SH2 domain T52S) | enrichment score [2]
20 | IGEGTYGTVFK [CDK5_Y15] | inactive: 0.672 | inactive: 0.88 | inactive: 0.686 | inactive: 0.749 | inactive: 0.796 | inactive: 1.1
21 | VATSWYRSPEL [CDKL5_Y177_R175S] | inactive: 1.05 | inactive: 0.897 | inactive: 0.883 | inactive: 0.965 | inactive: 1.03 | inactive: 1.05
22 | RLSELYLRRNP [CFAP410_Y68_R73P] | inactive: 0.239 | inactive: 0.174 | inactive: 0.176 | inactive: 0.178 | inactive: 0.187 | inactive: 0.24
23 | IEEGTYGVVFR [CDK11B_Y449_YF] | inactive: 0.944 | inactive: 0.944 | inactive: 0.812 | inactive: 0.522 | inactive: 0.764 | inactive: 0.829
24 | NAPNSYGRRPS [CDKN2A_Y44_I49S] | inactive: 0.295 | inactive: 0.254 | inactive: 0.406 | inactive: 0.233 | inactive: 0.274 | inactive: 0.279
25 | EHEALYLEADL [CENPF_Y1920] | inactive: 0.764 | inactive: 0.683 | inactive: 0.757 | inactive: 0.838 | inactive: 0.623 | inactive: 1.55
26 | IGEGTYGVVYK [CDK2_Y15] | inactive: 0.91 | inactive: 0.764 | inactive: 0.713 | inactive: 0.684 | inactive: 0.885 | inactive: 0.925
27 | ALAAPYVLFPS [CEFIP_Y1332_G1337S_YF] | inactive: 1.05 | inactive: 1.13 | inactive: 0.884 | inactive: 0.905 | inactive: 0.946 | inactive: 0.942
28 | GGSSPYSRRLA [CDK13_Y351_P356A] | inactive: 0.246 | inactive: 0.229 | inactive: 0.254 | inactive: 0.245 | inactive: 0.261 | inactive: 0.267
29 | RSRSPYSPVFR [CDK13_Y399_L403F] | inactive: 0.348 | inactive: 0.348 | inactive: 0.338 | inactive: 0.381 | inactive: 0.333 | inactive: 0.281
30 | ERQIRYLNHQL [CEP152_Y268] | inactive: 0.804 | inactive: 0.685 | inactive: 0.722 | inactive: 0.892 | inactive: 0.776 | inactive: 0.872
31 | IEEGTYGVAFR [CDK11B_Y449_V452A_YF] | inactive: 0.921 | inactive: 0.856 | inactive: 0.752 | inactive: 0.683 | inactive: 0.642 | inactive: 0.978
32 | IGEGTYGQVYK [CDK13_Y716] | inactive: 1.02 | inactive: 0.842 | inactive: 1.17 | inactive: 0.688 | inactive: 1.13 | inactive: 0.942
33 | VATRWYRSPEL [CDKL5_Y177] | inactive: 0.913 | inactive: 0.935 | inactive: 0.791 | inactive: 0.838 | inactive: 0.823 | inactive: 1.1
34 | NAPNSYGRRLI [CDKN2A_Y44_P48L] | inactive: 0.427 | inactive: 0.34 | inactive: 0.341 | inactive: 0.366 | inactive: 0.429 | inactive: 0.418
35 | DPADRYLTEQC [CDKL5_Y286] | inactive: 0.575 | inactive: 0.577 | inactive: 0.546 | inactive: 0.466 | inactive: 0.508 | inactive: 0.534
36 | IGEGTYGQVFK [CDK13_Y716_YF] | inactive: 0.786 | inactive: 0.688 | inactive: 0.756 | inactive: 0.675 | inactive: 0.78 | inactive: 0.864
37 | KPEKTYGLRNE [CEP43_Y267_K271N] | inactive: 0.67 | inactive: 0.689 | inactive: 0.566 | inactive: 0.487 | inactive: 0.743 | inactive: 0.853

— the supplement of paper PMC10369915
